Results as given in ChEMBL document CHEMBL4888484, “Replenishing the malaria drug discovery pipeline: Screening and hit evaluation of the MMV Hit Generation Library 1 (HGL1) against asexual blood stage Plasmodium falciparum ,using a nano luciferase reporter read-out” (2022).
Hit rate of the full screen: of about 150,000 compounds, about 540 (0.36%) showed an effect of 50% or more. Some of the results follow.

test system: Plasmodium falciparum; assay: Primary screen in NF54 nanoGlo assay, in single point, at 2uM, 72h; a lower Z score goes with more inhibition; format: functional, Erythrocyte; details: timepoint 72 hour

SMILES | % Inhibition [%] | Z score
Cc1cccc(Cl)c1NC(=O)N1CCO[C@H](c2ccsc2)C1 | -3 | 0.57
COc1ccc(N2CC(C(=O)N(C)C[C@H]3CCCN4CCCC[C@@H]34)CC2=O)cc1 (some centres undefined) | -7 | 0.9
c1cn(CCCN2CCN(Cc3ccc4c(c3)CCO4)CC2)cn1 | -8 | 1.06
Cc1ccc(C(=O)N2CCC[C@H](Oc3cccnn3)C2)cc1 | -10 | 1.13
Cn1nnnc1N1CC2(CCOCC2)[C@@H]2CCC[C@@H]21 | -11 | 1.41
Cc1nn(C)cc1C(=O)N[C@@H](C)C1(N2CCOCC2)CCCC1 | -12 | 1.1
COc1ncccc1C(=O)NC[C@H](C)S(N)(=O)=O | 36 | -4.88
COc1ccc([C@@]2(C(=O)NCCCN3CCCC3=O)CC2(C)C)cc1 | -11 | 1.18
O=C(Nc1cccc(F)c1)C1(F)C(F)(F)C(F)(F)C(F)(F)C(F)(F)C1(F)F | 0 | -0.05
COc1cc2c(cc1OC)[C@H](c1cccc(Cl)c1)N(C(=O)C1CCCCC1)CC2 | -9 | 1.68
CC1(C)OC2COC3(COS(=O)(=O)N4CCN(c5ccccc5)CC4)OC(C)(C)OC3C2O1 (centres undefined) | -1 | 0.18
CCn1nc(CN2CCCN(C(=O)c3ncoc3-c3cccc(C)c3)CC2)c2c1CCOC2 | 9 | -1.72
Cc1nc2[nH]cc(C(=O)N[C@@H](C)c3cnn(C)c3C)c(=O)n2n1 | -5 | 0.92
O=C(Nc1ccccc1)c1ccc(S(=O)(=O)Nc2cccc(O)c2)cc1 | -4 | 0.49
COc1ccc(NC(=O)CC(C)(C)CC(=O)O)cc1 | 36 | -0.93
CN1CCC(Nc2cc(C(F)(F)F)nc(NC3CCN(C)C3=O)n2)C1=O (centres undefined) | -4 | 0.55
CCn1c(=O)c(CCC(=O)Nc2cccc(C)c2C)nc2c(C)nn(-c3ccc(C)cc3)c21 | 36 | -1.04
COc1ccc(OC)c(-c2ccnc(-n3ncc(C(=O)N4CCCC[C@@H]4CCN(C)C)c3C)n2)c1 | -3 | 0.39
O=C(Cn1ccc2ccccc21)N1CC[C@H](c2ncon2)C1 | -11 | 1.92
C#CCCC1(CCC(=O)N[C@H]2CC3(CCCC3)Oc3ccccc32)N=N1 | -17 | 2.1
O=C(N[C@@H](N1CCCCC1)C(Cl)(Cl)Cl)c1ccc(Cl)cc1 | 32 | -4.14
CCc1ccc(-n2c(=O)c3c(n2CC(=O)Nc2ccc4c(c2)OCCO4)Oc2ccc(Cl)cc2C3)cc1 | -16 | 1.63
